Measurements published in ChEMBL document CHEMBL4888484, “Replenishing the malaria drug discovery pipeline: Screening and hit evaluation of the MMV Hit Generation Library 1 (HGL1) against asexual blood stage Plasmodium falciparum ,using a nano luciferase reporter read-out” (2022).
Out of some 150,000 compounds screened, about 540 (0.36%) showed an effect of 50% or more. This is one part of the list.

Each compound was assayed on Plasmodium falciparum (assay: Primary screen in NF54 nanoGlo assay, in single point, at 2uM, 72h; a lower Z score goes with more inhibition). Conditions: timepoint 72 hour.
Type: functional, Erythrocyte
O=C(NCCCc1cnoc1)c1ccoc1 was tested, and the “% Inhibition” value was -8% and the Z score was 1.2.
With CCN1CCO[C@H](C(=O)N[C@H]2CC[C@H](NC(=O)C3(C)CCCCC3)CC2)C1 the “% Inhibition” value was -12% and the Z score was 2.35.
With COc1ccccc1OC1(C(=O)O)CCN(c2ncnc3[nH]ccc23)CC1 the “% Inhibition” value was 4% and the Z score was -0.58.
For Cc1cc(N(C)C)nc(NC(=O)N[C@@H]2C=C[C@H](CO)C2)n1, the “% Inhibition” value was -10% and the Z score was 0.98.
In the case of CCN(CC(=O)NCC(=O)OC)c1ccccc1Cl, the “% Inhibition” value is reported as 0% and the Z score is reported as 0.04.
With C=CCc1ccccc1O[C@@H](C)/C(N)=N/O the “% Inhibition” value was 4% and the Z score was -0.64.
For O=C(c1cc(C(F)(F)F)n[nH]1)N1CC2(CCCO2)C1C1CC1 (centres undefined), the “% Inhibition” value was 1% and the Z score was -0.22.
In the case of COC(=O)[C@]1(C)CN(C(=O)C(C)(O)C(C)C)C[C@H]1C (some centres undefined), the “% Inhibition” value is reported as 4% and the Z score is reported as -0.63.
CCOc1ncccc1CNC(=O)[C@H]1CCCN(C(=O)c2cccs2)C1 was tested, and the “% Inhibition” value was -4% and the Z score was 0.65.
In the case of O[C@@H](CNCc1ccccc1)c1cccs1, the “% Inhibition” value is reported as -5% and the Z score is reported as 0.47.
For CN1CCC[C@H]1c1nc(C2CN(C(=O)CCCc3ccccc3)C2)no1, the “% Inhibition” value was 1% and the Z score was -0.12.
CCCCOCC(=O)N1CCC2(CCC(=O)N(Cc3cccnc3)C2)CC1 was tested, and the “% Inhibition” value was 3% and the Z score was -0.3.
With CCc1nc2cc(-c3noc(-c4ccc5cc[nH]c5c4)n3)ccc2o1 the “% Inhibition” value was 2% and the Z score was -0.18.
CNC(=O)[C@@H](NC(=O)N1CCOC[C@@H]1CC(C)C)C(C)C was tested, and the “% Inhibition” value was -8% and the Z score was 1.28.
For CCOC1CC1C(=O)NS(=O)(=O)c1cccnc1 (centres undefined), the “% Inhibition” value was 1% and the Z score was -0.25.
With O=S(=O)(Cc1noc(-c2ccsc2)n1)c1cccc(Cl)c1 the “% Inhibition” value was -6% and the Z score was 1.1.
For COc1ccc(C(=O)Nc2nc3c(s2)CN(S(=O)(=O)c2ccc(C)cc2)CC3)c(OC)c1, the “% Inhibition” value was -14% and the Z score was 1.87.
CCc1nnc(N2CCN(CCCOC)CC2)o1 was tested, and the “% Inhibition” value was 12% and the Z score was -1.52.
For O=C(NCc1ccc(F)cc1)C(=O)NC[C@](O)(c1ccoc1)c1ccco1, the “% Inhibition” value was -8% and the Z score was 1.19.
In the case of CC(=O)N[C@H]1C[C@@H](c2cc(N(C)CCc3cnn(C)c3)nc(C)n2)C1, the “% Inhibition” value is reported as -6% and the Z score is reported as 0.71.
With O=C(N[C@H]1C[C@@H](c2cc(N3CCOCC3)ncn2)C1)c1cn[nH]c1 the “% Inhibition” value was -8% and the Z score was 1.41.
CCCCc1nc(N2CCN(S(=O)(=O)c3ccc(F)cc3)CC2)c2c(C)nn(-c3ccccc3)c2n1 was tested, and the “% Inhibition” value was -3% and the Z score was 0.4.
Brc1ccc(-c2nc(Cn3ccnn3)co2)cc1 was tested, and the “% Inhibition” value was -11% and the Z score was 1.68.
In the case of C[C@H]1Cc2cc(S(=O)(=O)N3CCOCC3)ccc2N1S(=O)(=O)c1ccccc1, the “% Inhibition” value is reported as -10% and the Z score is reported as 1.67.
With Cc1c(N2CCOCC2)c(C)n(Cc2cccc(F)c2)c1C(=O)NCCN1CCOCC1 the “% Inhibition” value was -3% and the Z score was 0.57.
Cc1noc(CN2CCC3(CC2)C[C@H](c2ccccc2)CN(C2CC2)C3)n1 was tested, and the “% Inhibition” value was -1% and the Z score was 0.14.
For CCc1nnc2n1CCN(CCc1ccncc1)C2, the “% Inhibition” value was 2% and the Z score was -0.33.
In the case of CC(Oc1cccc(F)c1)C1=NC(=O)[C@@H]2[C@@H](C)OCCN12 (some centres undefined), the “% Inhibition” value is reported as -15% and the Z score is reported as 1.34.
For CC(C)N1C(=O)[C@](C)(C(=O)Nc2ccc(F)cc2)Oc2cccnc21, the “% Inhibition” value was -11% and the Z score was 1.86.
CCCC(CCC)C(=O)NCc1cn([C@@H]2COC[C@H]2OC)nn1 was tested, and the “% Inhibition” value was 28% and the Z score was -3.2.
With O=C(Cn1nc2ccc(C(=O)NCc3ccccc3)cn2c1=O)NCCc1ccc(Cl)cc1 the “% Inhibition” value was -16% and the Z score was 1.43.
For CN(Cc1cnn(Cc2ccccc2)c1)Cn1c(=S)sc2ccccc21, the “% Inhibition” value was -4% and the Z score was 0.84.
In the case of CC(C)Cn1c(=O)c(N2CCN(C(=O)c3ccccc3)CC2)nc2ccccc21, the “% Inhibition” value is reported as -4% and the Z score is reported as 0.44.
O=C(N[C@H]1CCc2n[nH]c(=O)cc2C1)c1ccc2[nH]cnc2c1 was tested, and the “% Inhibition” value was -7% and the Z score was 1.09.
COc1cccc(-c2ccc(N3CCCN(C(=O)CN(Cc4ccc(F)cc4)C(=O)NC(C)C)CC3)nn2)c1 was tested, and the “% Inhibition” value was -24% and the Z score was 2.98.
In the case of O=C(C[C@H]1CCS(=O)(=O)C1)Nc1nc(-c2ccccc2)cs1, the “% Inhibition” value is reported as 5% and the Z score is reported as -0.65.
For COC(=O)[C@@]1(C(C)C)N[C@@H](c2nc(C(C)C)cs2)[C@H]2C(=O)N(C)C(=O)[C@H]21, the “% Inhibition” value was -9% and the Z score was 1.77.
For COC1(C)CN(C(=O)[C@@H]2CC[C@H](C(=O)N3CC(C)(OC)C3)C2)C1, the “% Inhibition” value was 5% and the Z score was -0.96.
For CC(C)(C)N1C[C@@H](CNC(=O)CCCn2cncn2)CC1=O, the “% Inhibition” value was -14% and the Z score was 1.52.
CCCN(CCN(CC)CC)CC(=O)NCc1ccccc1C was tested, and the “% Inhibition” value was -1% and the Z score was 0.07.
CCn1ccnc1CNC(=O)c1cc(COc2ccc3sc(C)nc3c2)on1 was tested, and the “% Inhibition” value was -19% and the Z score was 1.71.
For CN(C)C(=O)c1ccc(OC[C@H]2CCCO2)nc1, the “% Inhibition” value was 5% and the Z score was -0.82.
In the case of O=C(Nc1nc(-c2ccc3c(c2)OCCO3)cs1)c1cc(Cl)sc1Cl, the “% Inhibition” value is reported as -2% and the Z score is reported as 0.31.
For CCOC(=O)[C@H]1CCCN(S(=O)(=O)c2ccc(Cl)c(-c3nnc(-c4ccccc4)o3)c2)C1, the “% Inhibition” value was -7% and the Z score was 1.16.
O=C(c1cscn1)N1CC[C@H](Oc2cccc(Cl)c2)C1 was tested, and the “% Inhibition” value was 44% and the Z score was -7.13.
In the case of O=C(CNc1cccc(Cl)c1)N1CCC(c2ccon2)CC1, the “% Inhibition” value is reported as 0% and the Z score is reported as -0.02.
In the case of O=C(Cn1nc2ccc(C(=O)NCc3ccccc3)cn2c1=O)Nc1cccc(Br)c1, the “% Inhibition” value is reported as -18% and the Z score is reported as 1.55.
CC1CCN([C@@H](CNC(=O)c2ccc(S(=O)(=O)N3CCCC3)cc2)c2cccs2)CC1 was tested, and the “% Inhibition” value was -24% and the Z score was 2.77.
In the case of CN(C)C(=NC(=O)Nc1cccc(C(F)(F)F)c1)N(C)C, the “% Inhibition” value is reported as 1% and the Z score is reported as -0.2.
CN(C)c1cc(-n2cc(Br)cn2)ncn1 was tested, and the “% Inhibition” value was 0% and the Z score was -0.03.
With CC(C)[C@@H]1CN(c2cc(N)ncn2)CCCN1Cc1ccc(F)cc1 the “% Inhibition” value was 2% and the Z score was -0.24.
For Cc1ccc([C@H]2c3cc(OCc4nc(C(=O)N(C)C(C)C)co4)ccc3CCN2C(=O)C2CCCC2)cc1, the “% Inhibition” value was -14% and the Z score was 2.15.
